Here are results for 60 compounds from PubChem BioAssay AID1508624 (National Center for Advancing Translational Sciences (NCATS), 2021).

Molecules are shown by their SMILES. The whole screen tested about 48,000 compounds, of which about 120 (0.25%) were called active. Inconclusive results (about 4%) are left out. Calls follow the shape of the dose curve; as a rule, active = well fitted activation curve with a large enough effect; inconclusive = small, poorly fitted or top-dose-only effect, or another doubt; inactive = no such curve, though single readings can be large or run the other way. Some of the results follow.

This assay in a line: Primary qHTS for Identification of Small Molecule Activators of Huntingtin-Antisense Promoter Activity. Also: nearly all actives have a fitted effect of over 55% in size. Particulars: HEK293 HTT-AS promoter firefly luciferase reporter, 24 h; series mostly up to 57.5 µM; activity change, positive = activation: at the top concentration. The method, boiled down: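 Quantitative HTS used concentration series of up to 57.5 uM final on HEK293 luciferase reporter cells, 24 h at 37 degrees C. Readout was Dual-Glo firefly luminescence.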
(In general: In qHTS, concentration-response curves come from the screen itself.)
Consider `COc1ccc(-c2ccc3c(N)c(C(=O)Nc4ccc(C)cc4C)sc3n2)cc1OC`, for which the “activity change, positive = activation” value was inactive: -37.7%.
For `COc1ccc(S(=O)(=O)NCC(c2ccco2)N2CCN(c3ccccc3F)CC2)cc1OC` (stereo not given), the “activity change, positive = activation” value is inactive: -24.2%.
With `CC(C)c1nc2ccc(C(=O)NCc3ccc(F)cc3)cc2o1`, the “activity change, positive = activation” value was inactive: 4.37%.
Consider `COc1cc(C(=S)N2CCOCC2)cc(OC)c1OC`, for which the “activity change, positive = activation” value is inactive: -5.22%.
For `O=C(Cn1c(=O)n(Cc2ccc(C(=O)NCc3ccccc3Cl)cc2)c(=O)c2ccccc21)Nc1ccc(F)c(Cl)c1`, the “activity change, positive = activation” value was inactive: -21.2%.
Turning to `O=C(Cn1c(-c2cccs2)cc2ccccc21)NCc1ccccc1Br`, the “activity change, positive = activation” value is inactive: -38.3%.
On to `COc1ccc(N2CC(NC(=O)COc3ccc4ccccc4c3)CC2=O)cc1` (stereo not given), for which the “activity change, positive = activation” value was inactive: -22%.
The result for `CN(C)S(=O)(=O)c1ccc2c(c1)N(CC(=O)N1CCN(c3ccccc3F)CC1)CCS2` reads inactive: -18.8%.
With `CCc1cccc(C)c1NC(=O)CN1C(=O)C2(SCC(=O)N2c2cc(C)cc(C)c2)c2ccccc21` (stereo not given), the “activity change, positive = activation” value was inactive: -22.5%.
The result for `COc1cccc(C(=O)Nc2ccccc2-c2nc3ccccc3s2)c1` reads inactive: 13.5%.
As to `Cc1cccc(CNC(=O)CN2C(=O)CCCc3ccccc32)c1`, the “activity change, positive = activation” value is inactive: -2.25%.
As to `Cc1ccc(-c2nc(CS(=O)(=O)CC(=O)NCc3ccccc3Cl)c(C)o2)cc1`, the “activity change, positive = activation” value is inactive: -10.2%.
In the case of `CC(C)Cc1ccc(CC(=O)O)cc1`, the “activity change, positive = activation” value was inactive: -6.75%.
For `Cc1oc(-c2cccc(Cl)c2)nc1CN1CCCC(C(=O)NCc2ccc(Cl)cc2)C1` (stereo not given), the “activity change, positive = activation” value was inactive: -22.3%.
The result for `O=S(=O)(c1ccc2[nH]c3c(c2c1)CCCCC3)N1CCN(c2cccc(Cl)c2)CC1` reads inactive: 9.73% [at 11.5 µM, percent change from vehicle, -100% = no light].
`Cc1ccccc1CNC(=O)c1sc2ncnc(N(C)C3CCCCC3)c2c1C`: the “activity change, positive = activation” value was inactive: -23.6%.
The result for `NC(N)=NCCC[C@H](N)C(=O)O` reads inactive: -6.75% [at 6 µM, percent change from vehicle, -100% = no light]; that for `CC1=C(C(=O)Nc2cccc(C(F)(F)F)c2)C2(CCCCC2)OC1=O`, inactive: -29.5%.
`COc1cc(OC)cc(C(=O)Nc2cccc(-c3cn4cccnc4n3)c2)c1`: the “activity change, positive = activation” value is inactive: 1.63%.
For the compound `Cc1cccc(NC(=O)c2sc(-n3nc(C)c(CCC(C)C)c3C)nc2C)c1C`, the “activity change, positive = activation” value was inactive: -2.56%.
Take `Cc1ccc(CNC(=O)CCCCn2c(=O)c3ccccc3n(Cc3ccc(C)cc3)c2=O)cc1`: the “activity change, positive = activation” value was inactive: -12%.
For the compound `CCOC(=O)c1c(S(=O)(=O)N2CCC(C(=O)NCc3ccccc3OC)CC2)c(C)n(C)c1C`, the “activity change, positive = activation” value was inactive: 20.5%.
For the compound `Cc1cc(C)cc(OCC(=O)N(Cc2ccc(Cl)cc2)CC2CCCO2)c1` (stereo not given), the “activity change, positive = activation” value is inactive: -23.7%.
For `CCCCSCCCNC(=O)c1cn(C)c2ccc(S(=O)(=O)N3CCCC3)cc2c1=O`, the “activity change, positive = activation” value was inactive: -15.2%.
In the case of `COc1ccc(-c2nc3ccc(C)cn3c2Nc2ccc3c(c2)OCO3)cc1`, the “activity change, positive = activation” value was inactive: 6.09%.
With `Cc1ccc(-n2nc(C(=O)Nc3ccc(C)c(F)c3)c(=O)n(C)c2=O)cc1`, the “activity change, positive = activation” value was inactive: -5.19%.
Turning to `O=C(NC1CCCC1)c1ccc2c(=O)n(Cc3ccccc3)c(SCc3ccccc3)nc2c1`, the “activity change, positive = activation” value was inactive: -6.39%.
For the compound `CC(C=CC1=C(C)CCCC1(C)C)=CC=CC(C)=CC(=O)Nc1ccc(O)cc1`, the “activity change, positive = activation” value is inactive: -44.9% [at 116 µM, percent change from vehicle, -100% = no light].
As for `Cc1ccc(Nc2nc(Nc3ccc(C)c(C)c3)nc(N3CCOCC3)n2)cc1C`, the “activity change, positive = activation” value was inactive: -30.8%.
In the case of `COc1ccc(N2CCN(CCCNC(=O)c3cc(Nc4ccccc4OC)nc4ccccc34)CC2)cc1`, the “activity change, positive = activation” value is inactive: -39.4%.
Turning to `Cc1ccc(-n2nnnc2CNC(=O)c2ccccc2)cc1C`, the “activity change, positive = activation” value was inactive: -4.55%.
As for `COc1cc(C(=O)N2CCN(c3ccc(Nc4ccccc4)nn3)CC2)cc(OC)c1OC`, the “activity change, positive = activation” value is inactive: 10.2%.
Turning to `CC1CCCCN1S(=O)(=O)c1cc2c3c(c1)CC(=O)N3CCC2` (stereo not given), the “activity change, positive = activation” value is inactive: 3.21%.
With `COc1ccc(NC(=O)Nc2c[nH]c(=O)[nH]c2=O)c(OC)c1`, the “activity change, positive = activation” value is inactive: -3.62%.
Regarding `CCc1ccc(NC(=O)C2=CC(c3ccc4c(c3)OCO4)=NS(=O)(=O)N2C)cc1`, the “activity change, positive = activation” value is inactive: -19.9%.
The result for `Cc1cccc(-n2c(C)nc3cc(C(=O)NC4CCCCCC4)ccc32)c1` reads inactive: 0.83%; that for `COc1ccccc1CNC(=O)CSc1ncc2c(n1)-c1cc(Cl)ccc1N(Cc1ccccc1)S2(=O)=O`, inactive: -6.93%.
Consider `Cc1c(C(=O)N(Cc2ccc(Cl)cc2)CC2CCCO2)oc2ccc(F)cc12` (stereo not given), for which the “activity change, positive = activation” value was inactive: -18.7%.
Take `CCOc1ccc(-c2nc(SCC(=O)NCCCOC)c(-c3ccccc3)[nH]2)cc1`: the “activity change, positive = activation” value was inactive: 26.7%.
As for `CCn1c(CN2CCOCC2)nc2cc(NC(=O)c3ccc([N+](=O)[O-])cc3)ccc21`, the “activity change, positive = activation” value was inactive: -39.3%.
`COc1ccccc1Oc1c(NS(=O)(=O)c2ccc(C(C)(C)C)cc2)nc(-c2ncccn2)nc1OCCO`: the “activity change, positive = activation” value is inactive: -19.4%.
The result for `CSc1ccc(CC2C(=O)Nc3ccccc32)cc1` (stereo not given) reads inactive: -9.61%.
The result for `O=C(Cc1ccccc1F)N1CCC(c2nc3c(nnn3Cc3ccc(F)cc3)c(=O)[nH]2)CC1` reads inactive: -27.2%.
In the case of `O=C(CS(=O)(=O)c1cccc2nsnc12)Nc1cc(F)ccc1F`, the “activity change, positive = activation” value is inactive: -7.03%.
As to `CCOC(=O)C1CCN(c2c(C(=O)c3ccc(C)cc3)cnc3ccc(F)cc23)CC1`, the “activity change, positive = activation” value was inactive: -7.87%.
For the compound `O=c1c2cc3c(nc2ncn1Cc1ccc(Cl)cc1)CCCC3`, the “activity change, positive = activation” value was inactive: 0.73%.
Consider `COc1ccc(NC(=O)CN2C(=O)c3ccccc3Sc3ccc(C(=O)N4CCOCC4)cc32)c(OC)c1`, for which the “activity change, positive = activation” value was inactive: -19%.
On to `COc1cc(C(=O)OCc2cc(=O)n3nc(C(C)C)sc3n2)cc(OC)c1OC`, for which the “activity change, positive = activation” value was inactive: -5.39%.
`COc1cc(NC(=O)c2cccc(F)c2)ccc1NC(=O)c1cc2ccccc2o1`: the “activity change, positive = activation” value was inactive: -10.6%.
In the case of `CCOc1ccccc1NC(=O)CN1CCCN(Cc2cccc(Cl)c2)S1(=O)=O`, the “activity change, positive = activation” value was inactive: -28.4%.
Regarding `O=C(Nc1ccc(Oc2ccnc3[nH]ccc23)c(F)c1)c1cccn(-c2ccc(F)cc2)c1=O`, the “activity change, positive = activation” value is inactive: 9.25%.
In the case of `Cc1nc2ncnn2c(C)c1CCC(=O)N1CCN(c2cccc(Cl)c2)CC1`, the “activity change, positive = activation” value was inactive: -10.6%.
In the case of `CCOC(=O)c1cccc(NS(=O)(=O)c2cc3[nH]c(=O)c(=O)[nH]c3cc2C)c1`, the “activity change, positive = activation” value is inactive: 0.323%.
For `CC1CCC2(CC1)N=C(c1ccccc1)C(=O)N2CC(=O)Nc1ccc(F)c(Cl)c1` (stereo not given), the “activity change, positive = activation” value was inactive: -54.2%.
The result for `CCc1ccc(NC(=O)c2nnn(Cc3cccc(C(F)(F)F)c3)c2N)cc1` reads inactive: 6.64%; that for `COc1cccc(CNC(=O)COCc2cc(-c3ccc4c(c3)OCO4)on2)c1`, inactive: -9.57%.
Regarding `Cc1cc(C)cc(-n2ccnc2SCC(=O)Nc2ccc3c(c2)OCO3)c1`, the “activity change, positive = activation” value was inactive: -37.9%.
Turning to `Cn1cc(-c2cc3n(n2)CCC(=O)N3CCCC(=O)Nc2ccc(F)cc2F)c2ccccc21`, the “activity change, positive = activation” value was inactive: -18.7%.
The result for `CC(=O)N(Cc1cccnc1)c1nc2c(C)cccc2s1` reads inactive: -8.69%.
Regarding `COc1ccc(S(=O)(=O)NCc2ccc3c(c2)CCN3C(=O)c2ccc(C)cc2)cc1Cl`, the “activity change, positive = activation” value was inactive: -47%.
